The whole screen tested about 43,000 compounds, of which about 200 (0.47%) were called active. Inconclusive means that the source gave no clear call. Such entries were picked first, then a sample of the others. Calls follow the shape of the dose curve; as a rule, active = well fitted cell-killing curve with a large enough effect; inconclusive = small, poorly fitted or top-dose-only effect, or effect the other way; inactive = flat fitted curve, though single readings scatter. Where the call is inconclusive, the potency comes from a doubtful curve fit.
Test: Cell viability qHTS assay in S16 Pmp22-F2sN cells; also: nearly all actives have a fitted effect of over 65% in size
Conditions: S16 Pmp22-F2sN Schwann cells (luciferase reporters placed in the Pmp22 gene) viability, CellTiter-Glo, 24 h; activity change, negative = cytotoxicity: at 57.5 µM (top of the series)
In short: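 S16 Schwann cells carrying the Pmp22-F2sN reporter, seeded in 1536-well format, were exposed to library compounds for 24 h at 37C. Viability was read as CellTiter-Glo luminescence after 15 min at room temperature.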
For `COc1ccc(Cl)cc1NC(=O)CSc1ccc(-c2sc(C)nc2C)nn1`, the Potency was inconclusive: 22.4 µM [cytotoxic, single point]. In the case of `CC(C)Cc1nn2c(=O)cc(COC(=O)c3ccc4c(c3)OCO4)nc2s1`, the Potency is reported as inconclusive: 17.8 µM [cytotoxic, single point]. For `CCOC(=O)c1c(C)[nH]c(CCC(=O)NCCCN2CCN(c3cc(C)ccc3C)CC2)c1C`, the Potency was inconclusive: 31.6 µM [cytotoxic, single point]. In the case of `Cc1ccc(C)c(NC(=O)CSc2ncc3c(n2)-c2ccc(Cl)cc2N(C)S3(=O)=O)c1`, the Potency is reported as inconclusive: 25.1 µM [cytotoxic, single point]. For `CCCc1cnc2c(c1SCC(=O)Nc1ccc(C)c(Cl)c1)c(=O)n(C)c(=O)n2C`, the Potency was inconclusive: 31.6 µM [cytotoxic, single point]. In the case of `CCOc1ccccc1NC(=O)N1CCc2c(sc(C)c2CC)C1c1ccccc1` (stereo not given), the Potency is reported as inconclusive: 39.8 µM [cytotoxic, partial curve, poor fit]. With `COc1ccc(-c2nn3c(-c4ccccc4C)nnc3c3ccccc23)cc1` the Potency was inconclusive: 39.8 µM [cytotoxic, single point]. In the case of `Cc1noc(/C=C/c2cccs2)c1S(=O)(=O)N1CCC(C(=O)NCc2ccccc2Cl)CC1`, the Potency is reported as inconclusive: 11.2 µM [cytotoxic, partial curve, poor fit]. With `COc1ccc(C(=O)Nc2nnc(S(=O)(=O)N(CC(C)C)c3ccc(C)cc3)s2)cc1OC` the Potency was inconclusive: 0.0178 µM [cytotoxic, full curve, poor fit]. With `COc1cccc(CNC(=O)c2nn(-c3ccc(C)cc3)c(=O)c3c2c2ccccc2n3C)c1` the Potency was inconclusive: 14.1 µM [cytotoxic, partial curve, poor fit]. With `O=C(Cc1ccccc1)NCCc1csc2nc(-c3ccc(Cl)cc3)nn12` the Potency was inconclusive: 20 µM [cytotoxic, partial curve, poor fit]. For `COc1ccc(Nc2nc(N)c3cc(OC)c(OC)cc3n2)cc1`, the Potency was inconclusive: 39.8 µM [cytotoxic, single point]. With `CCC(C(=O)NCCc1ccccc1)n1nc(C)n2c(cc3sccc32)c1=O` (stereo not given) the Potency was “inactive”. For `COc1cc(OC)c(NS(=O)(=O)c2ccc3c(c2)CCCN3C(C)=O)cc1Cl`, the Potency was inconclusive: 20 µM [cytotoxic, partial curve, poor fit]. In the case of `Cc1ccc(-c2cc(C(F)(F)F)n3nc(C(=O)NCC45CC6CC(CC(C6)C4)C5)cc3n2)cc1`, the Potency is reported as “inactive”. For `CCOc1ccc(-c2nc(CSCC(=O)NCc3ccc(Cl)cc3)c(C)o2)cc1`, the Potency was “inactive”. With `CCc1ccccc1N1CC(c2nc3ccccc3n2CCCCOc2ccccc2)CC1=O` (stereo not given) the Potency was inconclusive: 31.6 µM [rising, partial curve, poor fit]. In the case of `CC(C)c1nc2ccc(C(=O)NC(C)c3ccccc3)cc2o1` (stereo not given), the activity change, negative = cytotoxicity is reported as inconclusive: 40.3%. With `CCCn1c2ccccc2c2cnn(CC(=O)N(CCCOC)Cc3ccco3)c(=O)c21` the Potency was inconclusive: 39.8 µM [cytotoxic, partial curve, poor fit]. In the case of `COc1ccc(Cn2c(C(=O)O)c(CNCc3ccc(C)o3)c3ccc(C)cc32)cc1`, the Potency is reported as inconclusive: 14.1 µM [cytotoxic, partial curve]. In the case of `Cc1cccc(-c2nc(CCNC(=O)Cc3ccccc3)cs2)c1`, the Potency is reported as inconclusive: 28.2 µM [cytotoxic, partial curve, poor fit]. With `CCOC(=O)c1c(-c2ccccc2)oc2ccc(N(C(C)=O)S(=O)(=O)c3ccc(CC)cc3)cc12` the Potency was inconclusive: 39.8 µM [cytotoxic, single point]. With `Cc1ccc(CCNC(=O)c2cc3c(s2)-c2c(C)cccc2OC3)cc1` the Potency was inconclusive: 39.8 µM [cytotoxic, single point]. With `COc1cccc(-n2c(SCC(=O)Nc3c(C)cc(C)cc3C)nc3c([nH]c4ccccc43)c2=O)c1` the Potency was “inactive”. With `COc1ccc2sc(N(Cc3cccnc3)C(=O)C3CCCCC3)nc2c1` the Potency was inconclusive: 39.8 µM [cytotoxic, single point]. With `Cc1cccc(NS(=O)(=O)c2ccc3[nH]c4c(c3c2)CCCCCC4)c1` the Potency was inconclusive: 35.5 µM [cytotoxic, single point]. For `Cc1ccc(C)c(N2CCN(C(=O)c3cc4c(=O)n(Cc5ccccc5)ccc4nc3C)CC2)c1`, the Potency was inconclusive: 4.47 µM [cytotoxic, full curve, poor fit]. For `Cc1ccc2c(c1)N(C(=O)N1CCC(C(=O)NCCc3ccc(Cl)cc3)CC1)CC(C)O2` (stereo not given), the Potency was inconclusive: 39.8 µM [cytotoxic, single point]. In the case of `COc1ccc2[nH]c3c(c2c1)CCN(C(=O)c1cccc(Cl)c1)C3c1ccc(F)cc1` (stereo not given), the Potency is reported as inconclusive: 39.8 µM [cytotoxic, single point]. In the case of `CC1CCN(S(=O)(=O)c2ccc3c(ccn3CCC(=O)NCc3ccccc3F)c2)CC1`, the Potency is reported as inconclusive: 15.8 µM [cytotoxic, partial curve, poor fit]. For `O=C(Nc1ccc2c(c1)N(C1CCCC1)C(=O)c1ccccc1S2)c1ccccc1F`, the Potency was inconclusive: 20 µM [cytotoxic, partial curve]. For `Cc1sc2c(c1C)c(=O)n(Cc1ccccc1)c(=O)n2Cc1ccc(F)cc1`, the Potency was inconclusive: 11.2 µM [rising, partial curve]. In the case of `CCc1nc2cccnc2n1-c1ccc(CC(=O)Nc2cccc(C)c2C)cc1`, the Potency is reported as “inactive”. In the case of `CCC1=Nc2cc(C(=O)NCCN(CC)CC)ccc2Sc2ccccc21`, the Potency is reported as “inactive”. For `Cc1ccc(NC(=O)c2cc(S(=O)(=O)N3CCc4ccccc43)cn2C)c(Cl)c1`, the Potency was inconclusive: 35.5 µM [cytotoxic, single point]. In the case of `CCSc1ccccc1C(=O)Nc1ccc(-c2nc3ccccc3s2)c(O)c1`, the Potency is reported as inconclusive: 39.8 µM [cytotoxic, single point]. For `FC(F)(F)c1cccc(N2CCN(c3ncnc4c3nc3n4CCCC3)CC2)c1`, the Potency was inconclusive: 8.91 µM [cytotoxic, partial curve, poor fit]. For `O=C(Cn1nc(C(F)(F)F)c2c1CCCC2)Nc1cccc(Cl)c1`, the Potency was active: 20 µM. For `COc1cccc(C(=O)Nc2ccc3nc(SCC(=O)N(C)c4ccccc4)sc3c2)c1`, the Potency was inconclusive: 39.8 µM [cytotoxic, single point]. In the case of `Cc1ccc(CNC(=O)c2ccc(CSc3nc4ccncc4n3Cc3ccc(C)cc3)cc2)cc1`, the Potency is reported as inconclusive: 39.8 µM [cytotoxic, partial curve, poor fit]. In the case of `O=C(NCCc1ccc(Cl)cc1)C1CCN(Cc2cc3ccccc3n2Cc2ccccc2)CC1`, the Potency is reported as inconclusive: 39.8 µM [cytotoxic, single point]. With `Cc1cc(C)c(NC(=O)Cn2c(=O)oc3cc(S(=O)(=O)N4CCCCCC4)ccc32)c(C)c1` the Potency was “inactive”. In the case of `COC(=O)c1ccc2c(=O)n(CCCCCC(=O)NCCc3ccccc3)c(=O)[nH]c2c1`, the Potency is reported as inconclusive: 44.7 µM [cytotoxic, partial curve, poor fit]. For `O=C(Cn1ccc2cc(S(=O)(=O)N3CCCCCC3)ccc21)NCc1ccccc1Cl`, the Potency was inconclusive: 28.2 µM [cytotoxic, single point]. For `Cc1noc2ncnc(N3CCN(c4cccc(C(F)(F)F)c4)CC3)c12`, the Potency was inconclusive: 17.8 µM [cytotoxic, single point]. With `Cc1cccn2c(=O)c3cc(C(=O)NCC(C)C)sc3nc12` the Potency was “inactive”. With `CCOC(=O)c1cnc2c(ccc3ccccc32)c1Nc1ccc(N(C)C)cc1` the Potency was “inactive”. With `CCCCN(CC)C(=O)CSc1nc2n[nH]c(C)c2c(=N)n1-c1ccc(CC)cc1` the Potency was inconclusive: 25.1 µM [cytotoxic, partial curve, poor fit]. With `O=C(CCC1N=C2c3ccccc3N=C(SCC(=O)Nc3cccc(Cl)c3)N2C1=O)NCc1ccco1` (stereo not given) the Potency was inconclusive: 25.1 µM [cytotoxic, partial curve, poor fit]. With `CCCCOc1ccc(C(=O)Nc2ccc3c(c2)CCCN3C(=O)c2cccs2)cc1` the Potency was inconclusive: 28.2 µM [cytotoxic, single point]. For `CCCCOc1ccccc1C1CC(=O)Nc2ccc3ccccc3c21` (stereo not given), the Potency was inconclusive: 39.8 µM [cytotoxic, single point]. With `Cc1cccc2c1-c1sc(C(=O)Nc3ccc(F)cc3F)cc1CO2` the Potency was “inactive”. For `CCCCC1CCC(C(=O)N2CC(=O)Nc3ccc(Br)cc3C2c2ccc(F)cc2)CC1` (stereo not given), the Potency was inconclusive: 35.5 µM [cytotoxic, single point]. For `COC(=O)COc1ccc(-c2nnc(Nc3ccc(O)cc3)c3ccccc23)cc1`, the Potency was inconclusive: 39.8 µM [cytotoxic, single point]. With `CCOC(=O)c1noc2nc(C)n(CC(=O)Nc3cccc(OC)c3)c(=O)c12` the Potency was inconclusive: 39.8 µM [cytotoxic, partial curve, poor fit]. In the case of `COc1ccc(-n2ccnc(NCc3ccccc3Cl)c2=O)cc1OC`, the Potency is reported as inconclusive: 3.55 µM [rising, full curve, poor fit]. With `Cc1ccc2nc(COc3cccc(NC(=O)c4ccccc4Cl)c3)cc(=O)n2c1` the Potency was inconclusive: 12.6 µM [rising, partial curve, poor fit]. For `CCOc1ccccc1CNC(=O)c1cnc2sc(N(CC)CC)nn2c1=O`, the Potency was inconclusive: 1.41 µM [rising, partial curve, poor fit]. With `COc1ccccc1/C=C/c1nc(C#N)c(NCC(C)C)o1` the Potency was inconclusive: 31.6 µM [cytotoxic, partial curve, poor fit]. With `COc1ccc(C(=O)Nc2ccc3nc4c(c(Nc5ccccc5OC)c3c2)CCCC4)c(OC)c1` the Potency was inconclusive: 1 µM [rising, full curve].
% is scaled to controls: 0 for no effect and ±100 for the full control effect; potency is read from the fitted curve at half-maximal effect; tags tell the direction and shape of the fitted curve.
